# Measurements from PMC6919601, “Identification of Plasmodium dipeptidyl aminopeptidase allosteric inhibitors by high throughput screening” (PLoS ONE, 2019).
# Hit rate of the full screen: of about 110,000 compounds, about 230 (0.21%) showed an effect of 50% or more. This is one part of the list.
# Target: DPAP1 (Plasmodium falciparum, UniProt Q8IIJ9)
# Experiment: primary screen, percent inhibition; read by cleavage of a fluorogenic dipeptide substrate; higher = more effect of the substance
# Set-up: species or system P. falciparum D10 trophozoite lysates; single well
# 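Note: 30 min substrate incubation versus DMSO and 10 µM JCP410 controls.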
# DPAP1, sequence (Q8IIJ9 whole entry, looked up): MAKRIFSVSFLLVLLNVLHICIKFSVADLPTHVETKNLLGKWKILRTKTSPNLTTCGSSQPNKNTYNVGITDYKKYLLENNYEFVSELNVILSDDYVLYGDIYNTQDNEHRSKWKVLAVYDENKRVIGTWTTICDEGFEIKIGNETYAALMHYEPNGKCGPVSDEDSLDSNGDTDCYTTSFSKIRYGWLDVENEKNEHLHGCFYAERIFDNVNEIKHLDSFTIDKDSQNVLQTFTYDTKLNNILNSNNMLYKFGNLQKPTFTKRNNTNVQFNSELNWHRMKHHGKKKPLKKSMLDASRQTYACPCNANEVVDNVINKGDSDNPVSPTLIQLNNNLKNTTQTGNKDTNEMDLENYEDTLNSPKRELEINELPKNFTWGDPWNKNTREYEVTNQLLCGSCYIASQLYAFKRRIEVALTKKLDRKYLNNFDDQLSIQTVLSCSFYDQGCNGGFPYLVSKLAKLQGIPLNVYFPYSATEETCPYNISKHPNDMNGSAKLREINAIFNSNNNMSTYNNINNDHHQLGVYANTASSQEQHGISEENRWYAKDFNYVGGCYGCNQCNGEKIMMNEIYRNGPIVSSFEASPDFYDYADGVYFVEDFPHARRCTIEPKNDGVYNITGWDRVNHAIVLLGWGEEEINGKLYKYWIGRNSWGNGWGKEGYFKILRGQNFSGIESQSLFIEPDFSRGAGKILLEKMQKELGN
row,SMILES,% Inhibition @ 10 uM
1,C=CCN1C(=O)S/C(=C/c2cc(C)n(-c3ccc(C#N)cc3)c2C)C1=O,6.42%
2,Cc1cc(=O)oc2cc3c(cc12)OCO3,2.94%
3,Cc1cc(C)c2c(n1)nn1c(C)c(CCC(=O)N3CCCCCC3)c(C)nc21,-0.72%
4,O=C(COc1ccccc1Cl)N(Cc1ccccc1F)C1CCS(=O)(=O)C1 (centres unmarked),2.02%
5,COc1cccc(S(=O)(=O)NCC(=O)N2CCCCCC2)c1,2.48%
6,CSc1ncc(C(=O)NCCCN(C)Cc2ccccc2)c(-c2ccccc2)n1,2.25%
7,Cc1ccc(CNCCCSc2nnnn2C)cc1,-6.6%
8,O=C(CSc1nc2ccccc2o1)Nc1ccccc1Br,-18.1%
9,c1ccc2c(c1)nc1n2CN(CCN2CCOCC2)CN1,0.032%
10,Cc1cc(C)c2nc(N3CCC(C(=O)NCCCN(C)C4CCCCC4)CC3)sc2c1,0.137%
11,CCOC(=O)c1c(NC(=O)Cc2ccc(OCC)c(OCC)c2)sc2c1CCC2,-1.24%
12,O=C1c2ccccc2-c2nc(=O)c3c4c(sc3n21)CCCC4,4.6%
13,Cc1ccc(-c2cc(NC(=O)c3oc4ccccc4c3C)on2)cc1,-1.47%
14,Cc1sc2c(c1C)c(=O)n(Cc1ccccc1)c(=O)n2Cc1ccccc1F,9.94%
15,CC(C)(C)c1ccc(-c2nn3c(Cn4nnc5ccccc54)nnc3s2)cc1,7.31%
16,CN(CCc1ccccn1)Cc1ccc(Br)cc1,-3.44%
17,C=CCOc1ccc2c(=O)c(Oc3ccc(C)cc3)coc2c1,1.88%
18,COc1ccc(NC(=O)Cn2cnc3scc(-c4ccc(OC)c(OC)c4)c3c2=O)cc1,-3.41%
19,O=C(c1ccc(N2C(=O)c3ccccc3C2=O)cc1)N1CCCC1,1.48%
20,COc1cc(NC(=O)COc2ccc(Cl)cc2C)c(OC)cc1Cl,2.6%
21,Cc1ccc(S(=O)(=O)N2CCC(C(=O)Nc3cccc(C(=O)O)c3)CC2)cc1,-6.68%
22,Clc1ccc(CN2CCN(c3ccc(Cl)cc3)CC2)cc1,4.73%
23,COc1ccccc1NC(=O)C(C#N)=C1CCCCCC1,4.67%
24,CN1C(=O)NC(=O)/C(=C/c2ccc(Br)o2)C1=O,3.06%
25,COC(=O)c1sccc1NC(=O)c1cc2ccc3cccnc3c2[nH]1,3.44%
26,COc1ccccc1NC(=O)C1=C(C)NC(SCC(N)=O)=C(C#N)C1c1ccccc1 (centres unmarked),7.69%

row,SMILES,% Inhibition @ 10 uM
1,COc1ccc(/C=C(\NC(=O)c2ccc(C)cc2)C(=O)NCCCC(=O)O)cc1,-1.52%
2,NC(=O)C1CCN(C(=O)C(=O)c2c[nH]c3ccccc23)CC1,-6.38%
3,CC(C)Cn1c(=O)c2ccccc2n2c(CCC(=O)N3CCN(C4CCCCC4)CC3)nnc12,4.16%
4,Cc1ccc(C(=O)N2CCN(c3ccc(NC(=O)C(C)(C)C)cc3)CC2)cc1,-6.48%
5,Cc1cc(NC(=O)CSc2nc(-c3cccs3)cc(C(F)(F)F)n2)no1,1.39%
6,Cc1ccc(CNC(=O)c2ccc(C)o2)cc1,0.843%
7,CN(C)CC(O)COc1ccccc1 (centres unmarked),-3.65%
8,COc1cccc(-c2cc(C(F)(F)F)nc(N3CCC(C)CC3)n2)c1,-1.31%
9,CC(=O)Nc1ccc(NC(=O)c2ccc(-c3ccc(Cl)c(Cl)c3)o2)cc1,-4.7%
10,CCOC(=O)C1CCN(Cc2ccc(F)cc2F)CC1,-5.57%
11,CC1C(=O)CCC1(C(=O)O)c1ccccc1 (centres unmarked),5.73%
12,O=C(CCCNS(=O)(=O)c1cccs1)NCc1ccccc1,-1.31%
13,Cc1ccccc1Cn1c(CN(C)Cc2ccccc2)nc2c1c(=O)n(C)c(=O)n2C,-0.499%
14,O=C(/C=C/c1ccc(Cl)cc1)Nc1nccs1,18%
15,CSc1[nH]nc(N)c1S(=O)(=O)c1ccccc1,-6.08%
16,COc1ccc(C2=NN(S(C)(=O)=O)C(c3ccco3)C2)cc1 (centres unmarked),2.6%
17,CCOc1ccc2nc(SCc3c(Cl)cccc3Cl)sc2c1,-7.54%
18,O=S(=O)(O)c1ccc(O)c2ncccc12,1.7%
19,CCOC(=O)C1=C(c2ccccc2)N(C)C(=O)NC1c1ccc(O)c(OC)c1 (centres unmarked),1.13%
20,CC(CCc1ccccc1)NCCN1CCCCC1 (centres unmarked),-5.44%
21,O=C(NCCN1CCOCC1)C1CC(c2ccc(F)cc2)=NO1 (centres unmarked),-0.431%
22,C=C(CS(=O)(=O)c1ccc(C)cc1)C(=O)Nc1ccccc1,0.661%
23,CN1C2CCC1CC(N1CCN(Cc3ccccc3)CC1)C2 (centres unmarked),-1.5%
24,CCOC(=O)N1C2C3C4C5C3C(C5C42)N1C(=O)OCC (centres unmarked),-5.31%
25,CN1CCC/C1=N/c1cc(N(C)C)nc2ccccc12,-1.1%
26,CC(C)(Oc1ccc(Cl)cc1)C(=O)NCc1nc(-c2ccccc2)no1,-6.72%

row,SMILES,% Inhibition @ 10 uM
1,Cc1cc(C)c(Cn2c(C)c(CNCCc3ccccc3)c(C(=O)O)c2C)c(C)c1,-0.23%
2,CC(=O)N1CCC(NCc2ccco2)CC1,4.9%
3,Fc1ccc(SCCc2ccncc2)cc1,0.0345%
4,COc1ccccc1C1NC(C(=O)O)Cc2c1[nH]c1ccccc21 (centres unmarked),-0.341%
5,COc1ccc(CCN(Cc2nc(-c3ccccc3)no2)Cc2nc(-c3ccccc3)no2)cc1OC,-0.0626%
6,CCOc1ccc(CCNC(=O)CCCN2C(=O)CSc3nc(C)cc(C)c32)cc1OCC,-0.637%
7,O=C(Nc1ccc(F)cc1F)c1cc2ccccc2oc1=O,6.8%
8,CCCCC1CC1C(=O)Nc1ncc2c(n1)CC(C)(C)CC2=O (centres unmarked),-0.687%
9,COc1cccc2c1OC1(C=C2)c2ccccc2-c2ccccc2N1C (centres unmarked),5.46%
10,O=C(Nc1cc(Cl)cc(Cl)c1)c1ccc(Cl)cc1,6.41%
11,CCC(Oc1ccccc1)C(=O)N1CCN(C(=O)C(CC)Oc2ccccc2)CC1 (centres unmarked),-1.88%
12,O=C(O)CCC(=O)N1Cc2ccccc2Oc2ncccc21,-3.53%
13,CC1CCc2c(sc3nnn(CCCCN4C(=O)c5ccccc5C4=O)c(=O)c23)C1 (centres unmarked),2.41%
14,NC(=O)c1cc(S(=O)(=O)N2CCN(c3ccccn3)CC2)cs1,-6.86%
15,CCOC(=S)/N=C(\NS(=O)(=O)c1ccc(C)cc1)c1ccccc1,15.7%
16,CCOC(=O)N1CCN(C(=O)c2ccc(CS(=O)(=O)c3ccccc3C)o2)CC1,3.77%
17,O=C(COc1ccc(Br)cc1Cl)Nc1ccc(S(=O)(=O)N2CCCCC2)cc1,1.52%
18,CSc1nc(N)nc(SC/C=C/c2ccccc2)c1C#N,-0.132%
19,COC(=O)[C@@]1(C)CC[C@]2(C)CC[C@]3(C)C(=CC(=O)C4[C@@]5(C)CCC(=O)C(C)(C)C5CC[C@]43C)C2C1 (some centres unmarked),3.76%
20,Cc1ccc2nc(NC(=O)C3CCN(S(=O)(=O)c4c(C)noc4C)CC3)sc2c1,-3.28%
21,CCOC(=O)c1cc2c(=O)n3ccccc3nc2n(C)/c1=N\C(=O)c1ccc2c(c1)OCO2,9.37%
22,Cc1onc(-c2ccccc2Cl)c1C(=O)Nc1ccccc1F,-12.1%
23,CC(C)CCSc1nc2c(c(=O)[nH]c(=O)n2C)n1C(C)C,-0.941%
24,CCN(CC)c1nc(Cl)nc(N2CCOCC2)n1,-0.712%
25,CCOCCCNc1nc2c(S(=O)(=O)c3ccc(CC)cc3)nnn2c2ccccc12,-1.37%
26,Cc1ccc(NC(=O)c2ccc(-c3ccccc3)cc2)nc1,-2.27%

row,SMILES,% Inhibition @ 10 uM
1,CCCn1c2ccccc2c2cnn(CC(=O)Nc3cc(-c4cccc(F)c4)no3)c(=O)c21,-2.96%
2,COc1ccc(-c2c3c(nc4sc(C(=O)NCC5CCCO5)c(N)c24)CC(C)(C)CC3=O)cc1 (centres unmarked),-5.74%
3,CCOc1ccc(-c2ccc(OCC)nc2)cn1,-6.41%
4,OC(/C=C/c1ccccc1)(Cn1ccnc1)c1ccncc1 (centres unmarked),1.08%
5,Cc1[nH]nc(O)c1C(c1ccc(-c2ccccc2C(=O)O)o1)c1c(O)n[nH]c1C,-2.14%
6,CN(C)c1cc[n+](Cc2c(Cl)cccc2Cl)cc1,-6.34%
7,Cc1cc(OCC(=O)N(C)C2CCCCC2)cc(C)c1Cl,-0.351%
8,CN(c1cccc(NC(=O)c2ccc(Cl)cc2)c1)S(C)(=O)=O,0.873%
9,CC(=O)Nc1ccc(C2C(C#N)=C(N)Oc3cc(N(C)C)ccc32)cc1 (centres unmarked),-5.94%
10,COc1ccc2c(CNCCC3=CCCCC3)c(C(=O)O)n(Cc3ccc(F)cc3)c2c1,-1.53%
11,CC1CC2=C(CC1C1OCC(CN3CCCCC3)O1)C(C)(C)CCC2 (centres unmarked),-1.91%
12,CCc1ccc(-c2[nH]nc3nc(-c4ccc(OC)c(OC)c4OC)cc(C(=O)O)c23)cc1,0.526%
13,CCN(CC)CCCCOc1cccc(Cl)c1,3%
14,COc1ccc(OC)c(S(=O)(=O)N2CCCC2C(=O)NCCOc2ccccc2)c1 (centres unmarked),2.77%
15,Cc1nc(CNS(=O)(=O)c2cccnc2)cs1,0.953%
16,COc1ccc(-c2nc3sccn3c2C=O)cc1,-0.703%
17,CC(Sc1nc(-c2ccccc2)cc(C(F)(F)F)n1)C(=O)NCc1ccncc1 (centres unmarked),3.04%
18,Cc1ccc(S(=O)(=O)Nc2sc3c(c2C(N)=O)CCC3)cc1C,2.09%
19,CC(=O)Nc1ccc(N2C(=O)CC(NCCc3cccc(Cl)c3)C2=O)cc1 (centres unmarked),-3.01%
20,O=C1NC(c2cccc(Oc3ccccc3)c2)Nc2ccccc21 (centres unmarked),-5.06%
21,COc1cc(/C=N/c2oc(C)c(C)c2C#N)cc(Br)c1O,1.76%
22,Cc1cccc(C)c1NC(=O)CC1SC(NC2CCCCC2)=NC1=O (centres unmarked),2.92%
23,CCOC(=O)c1sc(N(Cc2nc(-c3cccc(C)c3)oc2C)C(C)=O)c(C#N)c1C,4.84%
